According to the supplement of paper PMC12217912:
The other results are listed elsewhere or left out. The full chains were built here from the parent and the listed change. Inactive controls read about 0.05.

B1: TEV protease; numbered along this chain (parent)
chain: MGESLFKGPRDYNPISSSICHLTNESDGHTTSLYGIGFGPFIITNKHLFRRNNGTLVVQSLHGVFKVKDTTTLQQHLVDGRDMIIIRMPKDFPPFPQKLKFREPQREERICLVTTNFQTKSMSSMVSDTSCTFPSGDGIFWKHWIQTKDGQCGSPLVSTRDGFIVGIHSASNFTNTNNYFTSVPKNFMELLTNQEAQQWVSGWRLNADSVLWGGHKVFMVKPEEPFQPVKEATQL

Variants of: B1
Test: raw area under fraction-flipped curve 0-4 h after induction (AUC4h, not background-subtracted), DNA-recorder readout of cleavage of the substrate (dimensionless); higher = more cleavage of the substrate by the protease variant
Details: temperature: 34 °C; time window: 0-4 h after rhamnose induction
Description: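 In vivo DNA recorder in E. coli TOP10(DE3) ΔrhaA at 34 °C. Each TEVp single-site mutant (parent TEVp 0) is paired with a single-site variant of the 7-mer TEVs (canonical ENLYFQ|S). The substrate sits between flexible linkers in a Bxb1-sfGFP-TEVs-SsrA fusion, so cleavage stabilises Bxb1 and speeds flipping of a recombination array, read by NGS. The value is the raw area under the fraction-flipped curve over 0-4 h after rhamnose induction (AUC4h), with ≥20 reads per time point. It is not background-subtracted; inactive controls average about 0.047.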
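Note: Bxb1 expression induced with 0.2% (w/v) L-rhamnose at OD600 near 0.5, cultures sampled hourly, flipped fraction per protease–substrate barcode pair counted by paired-end Illumina sequencing.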

Variant	area with substrate ENLYFQA	area with substrate ENLYFQC	area with substrate ENLYFQD	area with substrate ENLYFQG	area with substrate ENLYFQH	area with substrate ENLYFQI	area with substrate ENLYFQL	area with substrate ENLYFQM	area with substrate ENLYFQN	area with substrate ENLYFQQ	area with substrate ENLYFQR	area with substrate ENLYFQS	area with substrate ENLYFQT	area with substrate ENLYFQV	area with substrate ENLYFQW	area with substrate ENLYFQY	area with substrate ENLYFQE	area with substrate ENLYFQK	area with substrate ENLYFQP	area with substrate ENLYFQF
MGESLFKGPRDYNPISWSICHLTNESDGHTTSLYGIGFGPFIITNKHLFRRNNGTLVVQSLHGVFKVKDTTTLQQHLVDGRDMIIIRMPKDFPPFPQKLKFREPQREERICLVTTNFQTKSMSSMVSDTSCTFPSGDGIFWKHWIQTKDGQCGSPLVSTRDGFIVGIHSASNFTNTNNYFTSVPKNFMELLTNQEAQQWVSGWRLNADSVLWGGHKVFMVKPEEPFQPVKEATQL [S17W]	0.094	0.109	0.0631	0.0917	0.0762	0.0556	0.0641	0.0892	0.0779	0.0706	0.0653	0.103	0.0518	0.0526	0.067	0.0629				
MGESLFKGPRDYNPISSSICPLTNESDGHTTSLYGIGFGPFIITNKHLFRRNNGTLVVQSLHGVFKVKDTTTLQQHLVDGRDMIIIRMPKDFPPFPQKLKFREPQREERICLVTTNFQTKSMSSMVSDTSCTFPSGDGIFWKHWIQTKDGQCGSPLVSTRDGFIVGIHSASNFTNTNNYFTSVPKNFMELLTNQEAQQWVSGWRLNADSVLWGGHKVFMVKPEEPFQPVKEATQL [H21P]	0.0411	0.0435	0.0642	0.0524	0.0522	0.0512	0.053	0.053	0.0494		0.0539	0.0544	0.0491	0.0517	0.0445	0.058	0.0515	0.0475	0.0244	
MGESLFKGPRDYNPISSSICHLTHESDGHTTSLYGIGFGPFIITNKHLFRRNNGTLVVQSLHGVFKVKDTTTLQQHLVDGRDMIIIRMPKDFPPFPQKLKFREPQREERICLVTTNFQTKSMSSMVSDTSCTFPSGDGIFWKHWIQTKDGQCGSPLVSTRDGFIVGIHSASNFTNTNNYFTSVPKNFMELLTNQEAQQWVSGWRLNADSVLWGGHKVFMVKPEEPFQPVKEATQL [N24H]	0.076			0.0949		0.0372	0.0729	0.0792	0.0613	0.0649	0.0631	0.0855		0.0581	0.0606		0.0644	0.0516	0.0581	
MGESLFKGPRDYNPISSSICHLTCESDGHTTSLYGIGFGPFIITNKHLFRRNNGTLVVQSLHGVFKVKDTTTLQQHLVDGRDMIIIRMPKDFPPFPQKLKFREPQREERICLVTTNFQTKSMSSMVSDTSCTFPSGDGIFWKHWIQTKDGQCGSPLVSTRDGFIVGIHSASNFTNTNNYFTSVPKNFMELLTNQEAQQWVSGWRLNADSVLWGGHKVFMVKPEEPFQPVKEATQL [N24C]	0.0801	0.084	0.0493		0.0759	0.0581	0.0645	0.0749	0.0912	0.0615	0.0554	0.0796	0.0607		0.0702	0.0648		0.0626	0.0527	0.0711
MGESLFKGPRDYNPISSSICHLTQESDGHTTSLYGIGFGPFIITNKHLFRRNNGTLVVQSLHGVFKVKDTTTLQQHLVDGRDMIIIRMPKDFPPFPQKLKFREPQREERICLVTTNFQTKSMSSMVSDTSCTFPSGDGIFWKHWIQTKDGQCGSPLVSTRDGFIVGIHSASNFTNTNNYFTSVPKNFMELLTNQEAQQWVSGWRLNADSVLWGGHKVFMVKPEEPFQPVKEATQL [N24Q]	0.0764	0.0926		0.0788	0.0789	0.0665	0.0652	0.0882	0.0556			0.0906	0.0649	0.0593	0.0606			0.0603	0.0554	0.0677
MGESLFKGPRDYNPISSSICHLTWESDGHTTSLYGIGFGPFIITNKHLFRRNNGTLVVQSLHGVFKVKDTTTLQQHLVDGRDMIIIRMPKDFPPFPQKLKFREPQREERICLVTTNFQTKSMSSMVSDTSCTFPSGDGIFWKHWIQTKDGQCGSPLVSTRDGFIVGIHSASNFTNTNNYFTSVPKNFMELLTNQEAQQWVSGWRLNADSVLWGGHKVFMVKPEEPFQPVKEATQL [N24W]	0.0742	0.0822	0.063	0.0629		0.0599	0.0598	0.0664			0.0528	0.075	0.0678	0.0825	0.0733	0.0617		0.0676	0.0565	
MGESLFKGPRDYNPISSSICHLTRESDGHTTSLYGIGFGPFIITNKHLFRRNNGTLVVQSLHGVFKVKDTTTLQQHLVDGRDMIIIRMPKDFPPFPQKLKFREPQREERICLVTTNFQTKSMSSMVSDTSCTFPSGDGIFWKHWIQTKDGQCGSPLVSTRDGFIVGIHSASNFTNTNNYFTSVPKNFMELLTNQEAQQWVSGWRLNADSVLWGGHKVFMVKPEEPFQPVKEATQL [N24R]	0.0602	0.0682	0.0856	0.0778	0.0725	0.0602	0.0436	0.0864	0.0699		0.068	0.0719	0.0606		0.0585			0.0567		
MGESLFKGPRDYNPISSSICHLTYESDGHTTSLYGIGFGPFIITNKHLFRRNNGTLVVQSLHGVFKVKDTTTLQQHLVDGRDMIIIRMPKDFPPFPQKLKFREPQREERICLVTTNFQTKSMSSMVSDTSCTFPSGDGIFWKHWIQTKDGQCGSPLVSTRDGFIVGIHSASNFTNTNNYFTSVPKNFMELLTNQEAQQWVSGWRLNADSVLWGGHKVFMVKPEEPFQPVKEATQL [N24Y]	0.0802	0.0882	0.056	0.0763	0.0769	0.0644	0.0668	0.085	0.0759			0.0992	0.0708	0.0637	0.0936	0.0815	0.0599			
MGESLFKGPRDYNPISSSICHLTTESDGHTTSLYGIGFGPFIITNKHLFRRNNGTLVVQSLHGVFKVKDTTTLQQHLVDGRDMIIIRMPKDFPPFPQKLKFREPQREERICLVTTNFQTKSMSSMVSDTSCTFPSGDGIFWKHWIQTKDGQCGSPLVSTRDGFIVGIHSASNFTNTNNYFTSVPKNFMELLTNQEAQQWVSGWRLNADSVLWGGHKVFMVKPEEPFQPVKEATQL [N24T]	0.0764	0.103				0.0664	0.0617	0.0753	0.0543	0.0382	0.0701	0.0757	0.0576	0.061	0.0634	0.0746		0.0645	0.0621	
